Reference: the supplement of paper PMC3334620
Over roughly 33,000 sequences, “E-score (-0.5 to 0.5)” has its median near -0.011; the highest 2% begin near 0.28. This is one part of the list.

molecular target: T1, Gcr1 (UniProt P07261); experiment: PBM E-score (8-mer binding enrichment) (E-score (-0.5 to 0.5)); higher = stronger / more preferred TF binding; most listed sequences are background and not binding sites; conditions: protein concentration: 100 nM; construct: GST-full length
T1 sequence: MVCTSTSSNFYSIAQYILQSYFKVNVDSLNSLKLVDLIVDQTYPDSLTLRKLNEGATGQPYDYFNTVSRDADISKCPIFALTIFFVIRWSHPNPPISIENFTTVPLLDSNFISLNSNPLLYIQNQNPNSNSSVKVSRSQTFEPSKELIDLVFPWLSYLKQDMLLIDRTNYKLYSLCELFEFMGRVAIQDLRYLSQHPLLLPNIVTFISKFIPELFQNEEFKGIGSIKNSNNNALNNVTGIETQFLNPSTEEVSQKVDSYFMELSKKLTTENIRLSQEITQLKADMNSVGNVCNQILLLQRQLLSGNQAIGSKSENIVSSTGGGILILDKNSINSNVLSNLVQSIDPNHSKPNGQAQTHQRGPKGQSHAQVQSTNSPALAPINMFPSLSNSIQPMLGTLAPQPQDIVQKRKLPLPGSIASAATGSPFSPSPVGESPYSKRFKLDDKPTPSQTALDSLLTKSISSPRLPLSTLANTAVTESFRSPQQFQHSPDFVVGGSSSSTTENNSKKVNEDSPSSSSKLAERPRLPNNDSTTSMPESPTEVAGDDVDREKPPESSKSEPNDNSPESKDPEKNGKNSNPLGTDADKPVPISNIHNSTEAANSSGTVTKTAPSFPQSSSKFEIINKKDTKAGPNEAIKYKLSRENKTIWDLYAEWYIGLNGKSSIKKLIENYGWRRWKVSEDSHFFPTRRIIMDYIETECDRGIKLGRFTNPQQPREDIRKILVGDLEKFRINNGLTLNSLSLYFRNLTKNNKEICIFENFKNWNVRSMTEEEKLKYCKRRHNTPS
In short: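 Yeast transcription factors carrying a GST tag, as full-length proteins or DNA-binding domains, were produced by PURExpress in vitro transcription/translation. About 100-200 nM protein was applied to universal all-10-mer Agilent arrays, double-stranded by primer extension on fresh or once-stripped slides. Bound protein was detected with fluorescent anti-GST, and scans were normalised with masliner. The Universal PBM Analysis Suite gave each ungapped eight-base word, pooled with its reverse complement, an E-score, a modified Wilcoxon-Mann-Whitney statistic.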

Sequence | PBM E-score
CCCCCTCC | -0.234
CTAAGGAA | 0.104
GTGAGGCA | -0.0718
CAGAAGAC | 0.0276
CGCGTGCC | -0.182
AGGTCCAG | 0.0218
ACCATATG | -0.0133
TAGCCCCA | 0.139
CTGCTCGA | -0.0563
AAACTCGA | -0.0314
GAGAACGC | -0.124
CCTGAGTC | 0.0838
ATGTGCCC | -0.17
AAACCATT | -0.0208
GTAATGAA | -0.0605
AGGAGCAG | 0.0777
CATTACTC | -0.127
ACCATGTA | 0.0379
ATCACCGG | 0.0589
ATTCCGTA | 0.173
ATTTGGTG | 0.166
CCGCATAG | 0.135
GCTTAAAC | 0.0672
CTCGCCAA | 0.0701
CGGTCGGA | -0.263

Sequence | PBM E-score
ACAATATC | -0.111
CTATGGTA | -0.0725
AACCACGC | 0.0235
ACAGTTAC | 0.0846
ATGCTGTC | -0.182
ATGCGTGA | -0.0544
AACCAAGC | -0.0438
CCGCCGGA | 0.0444
GCTCACGA | -0.131
GATTGTCC | -0.11
CGTAGACC | -0.256
TAAAGGAA | 0.314
GACCATAA | 0.0388
CGCGTACA | -0.0115
AGTGCGTC | -0.11
CGCCCACA | 0.263
ACAGGTGG | 0.104
ATAAGCCA | 0.101
ATAGGGCG | 0.0875
AGCGTTCG | -0.204
AGTATAGC | 0.0932
GATAATCC | -0.153
AGAGCTGC | 0.0162
CGTAAGAA | -0.113
CTATTGAC | -0.0709

Sequence | PBM E-score
ATGCTACA | 0.123
CCTGCACG | -0.0652
AAGGTAGC | -0.0251
GACAGACC | -0.157
CAATTCCG | 0.0519
AACAGACA | 0.0187
AACAGCAG | 0.184
AGATGCAA | -0.0275
CACATGTC | -0.113
ATTGTCGA | -0.0307
ACATAAGA | 0.171
AATGCAGG | -0.0215
TGATTCCA | 0.0933
ATGCGCTC | 0.0347
ACACCTTA | 0.0539
AGATTCTC | 0.105
CTGATCAG | -0.307
AACAATAG | 0.0566
CGTATCAA | 0.0659
GCACTTGA | -0.0566
ATCACGAC | -0.306
CTGGTTCC | 0.34
GCCGGCGC | 0.0181
CTTTTTTC | 0.238
CCGATGAA | 0.0458

Sequence | PBM E-score
TAGCCCGA | 0.131
AGTGTACC | -0.334
AGGTTGGC | -0.111
GTGGCACA | -0.0489
ATGCGCCG | -0.196
CAGGAGCC | 0.242
AGTGCGCA | 0.0737
ACTACGAT | -0.123
ACCAGAGT | 0.0273
TCTTCTCA | -0.0323
CGCGGGAG | -0.187
ATTAAAAC | 0.113
GCGCCAAC | 0.22
CACTTATG | 0.0506
GACCCAGA | -0.0613
CCCGAAGC | 0.0299
TACTGCCA | -0.108
AGAGTCCT | 0.0857
GATCCTGC | 0.252
ATTACACA | 0.0576
GAGTTCAA | -0.246
CCACATGC | -0.205
GGATGAGA | -0.033
CGTGGTGC | -0.0202
ATTGGTGA | 0.121

Sequence | PBM E-score
ACCGCGAT | -0.16
AGGCGATC | -0.0743
AAGATCCC | 0.125
CATGGTGC | 0.0809
GTCATTTA | -0.172
AGCCTCAG | -0.0495
CCGAGCGG | -0.224
AGGAATCG | 0.294
GGGCGGCA | -0.0294
CTGAATCC | 0.115
ACTTAGGG | 0.147
CGGTTTGC | -0.089
AAAGATTG | -0.0542
ATTCTGAA | 0.136
CGGTTTGA | -0.249
ATCACACG | 0.0211
CACCGCGC | -0.0861
AAGTTTAG | 0.234
AGGGTTTG | -0.0293
TAAATAGA | 0.085
AGCGACTG | -0.0906
ACACAGCA | 0.202
AAGACTGC | -0.191
GCGGCCGA | 0.0208
CATCGTCC | -0.0955

Sequence | PBM E-score
CAGGAGCA | 0.0632
CGACCTGA | -0.0722
GATCCCAA | 0.278
GCATGGGA | 0.0449
AAATTCTC | 0.0423
AAATACCT | 0.0115
CCTATTGC | -0.0151
AATCAGCG | 0.0596
AACGCCGT | -0.216
ACACTGGA | 0.264
GCTGTATA | -0.244
CATACTGA | 0.00856
ACCCTCGG | -0.333
GCCAGAGA | 0.089
CATGAGGG | -0.325
GTAGAGGA | 0.207
CATTTGTC | -0.165
ACTAACTG | 0.0208
GACATACA | 0.00827
AACGTCTA | 0.00101
CCATAACG | 0.036
GGAAAATA | 0.0546
GAGCCTGA | -0.0612
AAGGAGGA | 0.0608
ATAACTTC | 0.151

Sequence | PBM E-score
GCCACTGA | 0.237
CCCTTGAG | -0.0784
GAAGGTTA | -0.132
CGGAACCC | 0.348
GAGCTTGA | -0.27
ATTTCACG | 0.0699
AGACTAAG | -0.151
ATTGAATC | -0.229
AGAGAAGG | -0.0646
AAGGTTTC | -0.149
GCCTGGAC | -0.0291
AGTTGAGG | 0.0732
ACTTATCC | 0.05
ACCTGCTA | -0.211
CGACTTCC | 0.27
GCGCTTAA | 0.0941
TCGTGGCA | 0.0674
CGGCAGCA | -0.0108
ATGGCGGG | -0.175
CGCTAGAA | 0.0935
AGGTCGCG | -0.0268
CGAGAGGC | -0.0864
